Results published in US20240173425A1, “HUMAN CD33 ANTIBODIES AND GLUCOCORTICOID CONJUGATES” (Eli Lilly and Company, priority 2022, published 2024).

What was measured:
human PBMCs [1] = assay: Immune cell depletion, total viable cell count; assay type: cell-based
Protocol: (§1) PBMCs were used to mimic in vivo conditions. […] The cells were then stimulated with LPS (Sigma cat. L2880) at 100 pg/mL in a 37° C. incubator for 24 hours. Culture supernatants were collected to measure the indicated cytokines (Proinflammatory Panel II (human) 4-Plex kits, MSD, K15053D-2).

[2] = system: primary human monocyte cells; assay: Antibody internalization (pHrodo Red, flow cytometry); assay type: cell-based; conditions: pHrodo-labeled antibodies 10 μg/mL, 2 hours at 37° C.
Protocol: Exemplified anti-human CD33 antibodies were labeled with pHrodo™ Red, amine-reactive dye (Thermo Fisher, P36014). The pH-sensitive dye was a non-fluorescent when outside the cells but fluoresces brightly in acidic low-pH lysosomes. This property allows visualization and qualification of the internalization of an antibody by flow cytometry. Human PBMCs (500 K/well) were incubated on ice in FACS buffer for 30 min, to quiesce baseline internalization. Cells were stained with pHrodo-labeled antibodies (10 μg/mL) in FACS buffer for 1 hour on ice then transferred to 37° C. for 2 hours. Cells were then stained with the remaining panel of surface detection marker: CD45 mAb (clone HI30); CD11b (clone ICRF44); CD14 (clone M5E2).

[3] = system: human plasmacytoid dendritic cells (pDCs); assay: Plasmacytoid dendritic cell differentiation assay; assay type: cell-based; conditions: human PBMCs, IL-3 supplemented media, CpG stimulation; for % Inhibition of pDC cell differentiation: flow cytometry
Protocol: The differentiation of pDC was measured by flow cytometry. The functional effects of the pDC were measured by type I IFN (IFNα) production.

human PBMCs [4] = assay: Proinflammatory cytokine modulation in LPS-stimulated PBMCs; assay type: cell-based; conditions: LPS 100 pg/mL, 24 hours
Protocol: as §1

CD33 on human monocytes = molecular target: T1, CD33 on human monocytes (Homo sapiens, UniProt P20138); assay: Cell surface binding potency, FACS assay; assay type: cell-based; conditions: human PBMCs, 4° C. for 30 mins
T1 construct: endogenous in cells; host or cells: primary human PBMCs / monocytes from donor blood
T1 sequence (P20138 18-364): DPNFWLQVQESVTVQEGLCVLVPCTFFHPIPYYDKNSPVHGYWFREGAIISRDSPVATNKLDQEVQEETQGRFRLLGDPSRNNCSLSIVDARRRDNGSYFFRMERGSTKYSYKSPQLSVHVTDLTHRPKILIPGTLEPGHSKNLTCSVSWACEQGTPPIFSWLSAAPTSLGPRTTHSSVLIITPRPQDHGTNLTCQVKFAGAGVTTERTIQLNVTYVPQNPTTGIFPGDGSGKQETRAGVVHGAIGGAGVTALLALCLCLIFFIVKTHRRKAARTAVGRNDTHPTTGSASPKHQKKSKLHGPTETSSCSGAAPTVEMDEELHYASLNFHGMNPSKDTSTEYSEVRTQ
Protocol: Human PBMCs were isolated from human blood samples by standard Ficoll-Paque™ plus (GE […]) density gradient centrifugation methods. Freshly isolated cells PBMCs were resuspended at 2×10^6 cells/mL and allowed to rest for 15 minutes at room temperature, then plated at 100 μL/well into a round bottom 96-well plate (COSTAR®) and washed with FACS buffer (PBS containing 2% fetal bovine serum from Corning®). Exemplified anti-human CD33 antibodies and the respective control IgG antibodies conjugated to Alexa Fluor® 647 according to manufacturer's protocol (Thermo Fisher Scientific) were added to the wells and diluted 4-fold in duplicate. Equivalent volume of 2× antibody cocktail containing: PE-Cy5 anti-human CD14 Antibody (clone M5E2), Per-CP anti-human CD45 Antibody (clone H130), FITC anti-human CD11b (clone ICRF44), and Alexa Fluor-647 anti-human CD66b (G10F5) was then added to the wells. Cells were incubated at 4° C. for 30 mins, washed twice with FACS buffer and resuspended in a final volume of 100 μl FACS buffer. Viability dye, Live/Dead Yellow (Thermo Fisher Scientific, L34968), was added and the samples were analyzed via a flow cytometer (LSRFortessa™ X-20; BD BIOSCIENCES). Data analysis was performed using FlowJo software and statistical analysis was performed using GraphPad Prism 9. Data represents the mean fluorescence intensity (MFI) of CD33 expressing cells from monocytes or neutrophils.

[5] = Aggregation upon temperature stress (SEC); assay type: physicochemical; conditions: about 100 mg/mL, 5 mM histidine pH 6.0, SEC
Protocol: (§2) Aggregation from cell culture: The exemplified anti-human CD33 antibodies were transiently expressed in CHO cells. […] The viscosity for each was measured using VROC® initium (RheoSense) at 15° C. using the average of 9 replicate measurements. […] Concentrated samples were incubated for a period of 4 weeks at 5° C. and 35° C., respectively. Following incubation, samples were analyzed for the percentage of high molecular weight (% HMW) species with size exclusion chromatography (SEC).

[6] = Thermal stability by Differential Scanning Calorimetry; assay type: physicochemical; conditions: DSC, PBS, pH 7.2
Protocol: as §2

[7] = molecular target: T2, human CD33 ECD 18-232-His (Homo sapiens, UniProt P20138); assay: Binding affinity and kinetics by surface plasmon resonance (Biacore 8K); conditions: 37° C., 1:1 binding model
T2 construct: CD33 ECD 18-232-His proteins
T2 sequence (P20138 18-232): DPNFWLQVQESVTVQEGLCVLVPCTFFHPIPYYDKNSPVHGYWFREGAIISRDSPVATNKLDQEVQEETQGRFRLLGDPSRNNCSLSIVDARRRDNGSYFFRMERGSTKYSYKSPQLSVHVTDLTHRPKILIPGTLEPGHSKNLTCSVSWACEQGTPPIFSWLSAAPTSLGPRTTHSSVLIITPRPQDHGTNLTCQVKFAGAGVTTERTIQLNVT
Protocol: (§3) The affinity and binding kinetics of the exemplified anti-human CD33 antibodies to human and cynomolgus monkey CD33 ECD 18-232-His proteins was determined by surface plasmon resonance using Biacore 8K (GE Healthcare). Briefly, per the Instrument Handbook the antibody was captured on a Biacore Protein A chip followed by flowing CD33 ECD from 200 nM down to 0.782 nM in 2-fold serial dilution in PBS-P20-BSA (0.005% surfactant P20, 0.1 mg/mL BSA). All measurements were carried out at 37° C. Multi-cycle kinetics setting that ran each analyte concentration in a separate cycle regenerating the surface after each sample injection was used. The regeneration was optimized to maintain consistent surface properties from cycle to cycle. Each cycle started with a 3 minute injection of 0.1 μg/mL of the antibody at 10 μl/min flow rate, followed by 3 min injection of antigen at 50 μl/min flow rate and a 15 min dissociation phase in PBS-P20-BSA. The chip surface was then regenerated with 30 seconds injection of pH 1.5, 10 mM glycine buffer at 50 μl/min flow rate three times. The data was fit to a 1:1 binding model to derive ka and kd, and to calculate KD.

[8] = system: cynomolgus monkey CD33 ECD 18-232-His; assay: as above; conditions: cynomolgus monkey CD33 ECD, 37° C., 1:1 binding model
Protocol: as §3

Viscosity (VROC initium) = assay type: physicochemical; conditions: about 125 mg/mL, 5 mM histidine pH 6, 15° C.
Protocol: as §2

CD33 in human PBMCs = molecular target: T3, CD33 in human PBMCs (Homo sapiens, UniProt P20138); assay: CD33 receptor degradation, protein immunoblot assay; assay type: cell-based; conditions: human PBMCs treated overnight at 37° C., compared to isotype control
T3 construct: endogenous in cells; host or cells: primary human PBMCs / monocytes from donor blood
T3 sequence (P20138 18-364): as the sequence (P20138 18-364) above
Protocol: Human PBMCs were isolated from human blood samples by standard Ficoll-Paque™ plus (GE […]) density gradient centrifugation methods. Freshly isolated PBMCs were seeded in 24-well cell culture plate at 1×10^7 cells/5 mL/well in culture media. […] This step allowed for determining degradation of internalized CD33 receptor. Cells were collected the following day and lysed with RIPA lysis buffer with protease and phosphatase inhibitors. Cell lysate protein was quantified by bicinchoninic acid (BCA) assay, and normalized for loading for the protein immunoblot assay. A non-competing anti-CD33 antibody (AbCam clone EPR4423) was used to detect CD33 levels.

[9] = Aggregation from cell culture and titer after Protein A purification; assay type: physicochemical; conditions: transient expression in CHO cells
Protocol: as §2

B1: Ab2 GC conjugate (conjugate)
heavy: [about 100 residues not printed]TYSNYDYWGQGTLVTVSSASTKGPCVFPLAPSSKSTSGGTAALGCLVKDYFPEPVTVSWNSGALTSGVHTFPAVLQSSGLYSLSSVVTVPSSSLGTQTYICNVNHKPSNTKVDKRVEPKSCDKTHTCPPCPAPEAAGGPSVFLFPPKPKDTLMISRTPEVTCVVVDVSHEDPEVKFNWYVDGVEVHNAKTKPREEQYNSTYRVVSVLTVLHQDWLNGKEYKCKVSNKALAAPIEKTISKAKGQPREPQVYTLPPSREEMTKNQVSLTCLVKGFYPSDICVEWESNGQPENNYKTTPPVLDSDGSFFLYSKLTVDKSRWQQGNVFSCSVMHEALHNHYTQKSLSLSPGK
light: DIQMTQSPSSLSASVGDRVTITCQASQPTFNYLNWYQQKPGKAPKLLIYDASNLQTGVPSRFSGSGSGTDFTFTISSLQPEDIATYYCQQYEDLPTFGPGTKVDIKRTVAAPSVFIFPPSDEQLKSGTASVVCLLNNFYPREAKVQWKVDNALQSGNSQESVTEQDSKDSTYSLSSTLTLSKADYEKHKVYACEVTHQGLSSPVTKSFNRGEC
- Total Viable Cell Count (human PBMCs [1]; LPS Stimulation): 1.57 ± 0.16 ×10^6 cells/mL
- Total Viable Cell Count (human PBMCs [1]; No LPS): 1.61 ± 0.07 ×10^6 cells/mL
- % Internalization [2]: 86.55 ± 6.859%
- % Inhibition of human IFNα secretion [3]: 95.62 ± 1.57%
- % Inhibition of pDC cell differentiation [3]: 91.89 ± 6.37%
- % Inhibition of human IL-6 secretion at 200 nM (human PBMCs [4]): 78.604 ± 0.836%
- % Inhibition of human TNFa secretion at 200 nM (human PBMCs [4]): 80.469 ± 2.579%
- binding to cell surface CD33 on human monocytes (CD33 on human monocytes): bound human CD33 expressed on the monocyte cell surface with desirable binding potency
- % HMW after 4-week incubation at 5° C. [5]: 0.95%
- % HMW after 4-week incubation at 35° C. [5]: 3.08%
- Tm1 [6]: 64.0 °C
- Tm2 [6]: 77.0 °C
- Tonset [6]: 57.8 °C
- ka [7]: 439000 M⁻¹ s⁻¹
- kd [7]: 0.000645 s⁻¹
- ka [8]: 1.03e+06 M⁻¹ s⁻¹
- kd [8]: 0.00478 s⁻¹
- Viscosity (Viscosity (VROC initium)): 7.3 cP

B2: Ab2: anti-human CD33 antibody, HC SEQ ID NO: 9 and LC SEQ ID NO: 10, IgG1AAA backbone (antibody)
heavy: [about 100 residues not printed]TYSNYDYWGQGTLVTVSSASTKGPCVFPLAPSSKSTSGGTAALGCLVKDYFPEPVTVSWNSGALTSGVHTFPAVLQSSGLYSLSSVVTVPSSSLGTQTYICNVNHKPSNTKVDKRVEPKSCDKTHTCPPCPAPEAAGGPSVFLFPPKPKDTLMISRTPEVTCVVVDVSHEDPEVKFNWYVDGVEVHNAKTKPREEQYNSTYRVVSVLTVLHQDWLNGKEYKCKVSNKALAAPIEKTISKAKGQPREPQVYTLPPSREEMTKNQVSLTCLVKGFYPSDICVEWESNGQPENNYKTTPPVLDSDGSFFLYSKLTVDKSRWQQGNVFSCSVMHEALHNHYTQKSLSLSPGK
light: DIQMTQSPSSLSASVGDRVTITCQASQPTFNYLNWYQQKPGKAPKLLIYDASNLQTGVPSRFSGSGSGTDFTFTISSLQPEDIATYYCQQYEDLPTFGPGTKVDIKRTVAAPSVFIFPPSDEQLKSGTASVVCLLNNFYPREAKVQWKVDNALQSGNSQESVTEQDSKDSTYSLSSTLTLSKADYEKHKVYACEVTHQGLSSPVTKSFNRGEC
- CD33 degradation upon binding and internalization (CD33 in human PBMCs): did not degrade the CD33 upon binding and internalization
- Total Viable Cell Count (human PBMCs [1]; LPS Stimulation): 1.64 ± 0.12 ×10^6 cells/mL
- Total Viable Cell Count (human PBMCs [1]; No LPS): 1.43 ± 0.33 ×10^6 cells/mL
- % Internalization [2]: 86.545 ± 4.589%
- % HMW species after Protein A chromatography [9]: 1.10%
- sCHO titer [9]: 4.7 g/L
- % Inhibition of human IFNα secretion [3]: 1.25 ± 0.19%
- % Inhibition of pDC cell differentiation [3]: 0.97 ± 0.39%
- % Inhibition of human IL-6 secretion at 200 nM (human PBMCs [4]): 12.045 ± 1.887%
- % Inhibition of human TNFa secretion at 200 nM (human PBMCs [4]): 5.978 ± 0.548%
- binding to cell surface CD33 on human monocytes (CD33 on human monocytes): bound human CD33 expressed on the monocyte cell surface with desirable binding potency
- % HMW after 4-week incubation at 5° C. [5]: <0.1%
- % HMW after 4-week incubation at 35° C. [5]: 0.86%
- Tm1 [6]: 71.8 °C
- Tm2 [6]: 77.5 °C
- Tonset [6]: 64.4 °C
- ka [7]: 454000 M⁻¹ s⁻¹
- kd [7]: 0.000516 s⁻¹
- ka [8]: 653000 M⁻¹ s⁻¹
- kd [8]: 0.00279 s⁻¹
- Viscosity (Viscosity (VROC initium)): 6.5 cP
